Among all 39,000 compounds or so, about 220 (0.56%) showed activity. The list shows a part of the results.
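Also: static incubation at 37 °C against the wild-type strain, values averaged over two biological replicates.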

The assay has as its system Escherichia coli K-12 BW25113. Briefly: relative growth (OD600 normalised to plate interquartile mean) (fraction); higher = less growth inhibition, active = 0.2 or less. To be noted: 50 µM; LB; incubation time: overnight (16-24 h).
With `Cc1ccc(S(=O)(=O)N2C[C@@H](O)COC[C@H]3O[C@@H](CC(=O)N[C@H]4CCN(Cc5ccccc5)C4)CC[C@@H]32)cc1`, the relative growth was inactive: 1.01.
As for `COC(=O)c1c(CC[C@@H](CO)NC(=O)N[C@@H](C)Cn2cc(-c3ccccn3)nn2)oc(C(C)=O)c1C(=O)OC`, the relative growth was inactive: 1.01.
As for `C[C@@H]1CN([C@H](C)CO)C(=O)Cc2cc(NC(=O)CCCCCC(=O)Nc3ccccc3N)ccc2O[C@H]1CN(C)Cc1ccc(C(F)(F)F)cc1`, the figure is inactive: 1.03.
As for `CCn1cc(C(=O)O)c(=O)c2cc(F)c(N3CCNCC3)nc21`, the figure is active: 0.049; as for `C[C@@H]1CN([C@H](C)CO)C(=O)c2cccc(NS(=O)(=O)c3ccc(F)cc3)c2O[C@H]1CN(C)C(=O)Nc1ccc(C(F)(F)F)cc1`, inactive: 0.956; as for `C[C@@H]1CN([C@@H](C)CO)C(=O)c2cc(NC(=O)Nc3ccc4c(c3)OCO4)ccc2O[C@@H](C)CCCCO[C@H]1CN(C)Cc1ccc2c(c1)OCO2`, inactive: 0.909.
On to `Cc1noc(C)c1NC(=O)N(C)C[C@H]1Oc2c(NC(=O)C3CC3)cccc2C(=O)N([C@@H](C)CO)C[C@@H]1C`, for which the relative growth was inactive: 1.01.
In the case of `C[C@@H]1CN([C@H](C)CO)C(=O)c2cc(NC(=O)Cc3ccccc3)ccc2O[C@@H]1CN(C)S(=O)(=O)c1cn(C)cn1` it was inactive: 0.967.
Turning to `CC(C)CC#Cc1cnc2c(c1)C(=O)N([C@H](C)CO)C[C@@H](C)[C@H](CN(C)S(=O)(=O)c1cn(C)cn1)O2`, the relative growth is inactive: 1.
Consider `C[C@H](CO)N1C[C@H](C)[C@@H](CN(C)C(=O)Nc2ccc(F)cc2)Oc2ccc(NC(=O)Nc3cccc4ccccc34)cc2C1=O`, for which the relative growth is inactive: 1.01.
In the case of `CO[C@@H]1CN(C)C(=O)c2ccc(NC(=O)NC3CCCCC3)cc2OC[C@@H](C)N(CCc2ccccc2)C[C@H]1C`, the relative growth was inactive: 1.03.
With `COc1ccc(NC(=O)Nc2ccc3c(c2)C(=O)N([C@H](C)CO)C[C@@H](C)[C@@H](CN(C)C(=O)c2ccccc2)OCCCC[C@H](C)O3)cc1`, the relative growth is inactive: 1.
`C[C@H](CO)N1C[C@H](C)[C@@H](CN(C)CC2CCCCC2)OCCCC[C@H](C)Oc2ccc(NS(=O)(=O)c3cccs3)cc2C1=O`: the relative growth was inactive: 0.989.
In the case of `COc1ccc(NC(=O)Nc2cccc3c2O[C@H](CN(C)C(=O)Nc2cccc4ccccc24)[C@H](C)CN([C@H](C)CO)C3=O)cc1` it was inactive: 0.981.
As for `C[C@H]1CN([C@@H](C)CO)C(=O)Cc2cc(NC(=O)Nc3cccc4ccccc34)ccc2O[C@@H]1CN(C)Cc1ccc(-c2ccccc2)cc1`, the figure is inactive: 1.
As for `O=C(C[C@H]1C=C[C@H](NC(=O)CN2CCOCC2)[C@H](CO)O1)NC1CCCCC1`, the figure is inactive: 0.997.

(Values after the supplement of paper PMC9446081.)
